In the antibiotic and cytotoxicity screens of Wong et al. (2023):
The other results are listed elsewhere or left out.

What was measured:
[1] = test system: HSkMC (human skeletal muscle cells); experiment: cytotoxicity call (relative viability < 0.9); conditions: 10 µM
[2] = test system: HepG2; experiment: cytotoxicity call (relative viability < 0.9); conditions: 10 µM
[3] = test system: S. aureus RN4220; experiment: growth inhibition call (relative growth <= 0.2); conditions: 50 µM

| Compound | cytotoxicity call [1] | cytotoxicity call [2] | growth inhibition call [3] |
| --- | --- | --- | --- |
| COc1cccc(S(=O)(=O)Nc2ccc3c(c2)[C@H]2C[C@@H](CC(=O)N4CCCCC4)O[C@H](CO)[C@H]2O3)c1 | inactive | inactive | inactive |
| COc1ccc(NC(=O)Nc2ccc3c(c2)C(=O)N([C@H](C)CO)C[C@H](C)[C@H](CN(C)CC2CCCCC2)O3)cc1 | inactive | inactive | inactive |
| CCOc1nc2cccc(C(=O)O[C@@H](C)OC(=O)OC3CCCCC3)c2n1Cc1ccc(-c2ccccc2-c2nn[nH]n2)cc1 | inactive | inactive | active |
| C[C@@H]1CN([C@H](C)CO)C(=O)c2cc(C#CC3CC3)cnc2O[C@H]1CN(C)S(=O)(=O)c1cccc(F)c1 | inactive | inactive | inactive |
| Cc1noc(C)c1NC(=O)N(C)C[C@@H]1OCCCC[C@@H](C)Oc2ccc(NC(=O)Nc3ccc(F)cc3)cc2C(=O)N([C@@H](C)CO)C[C@H]1C | inactive | inactive | inactive |
| C[C@@H]1CN([C@@H](C)CO)C(=O)CCCn2cc(nn2)CO[C@@H]1CN(C)S(=O)(=O)c1cccc(C#N)c1 | inactive | inactive | inactive |
| C[C@H](CO)N1C[C@H](C)[C@H](CN(C)Cc2ccc(C(=O)Nc3ccccc3N)cc2)Oc2ccc(NC(=O)CCC(F)(F)F)cc2C1=O | inactive | inactive | inactive |
| C[C@@H]1CCCCO[C@@H](CN(C)C(=O)Nc2ccc3c(c2)OCO3)[C@H](C)CN([C@H](C)CO)C(=O)c2cc(NS(=O)(=O)c3ccc(Cl)cc3)ccc2O1 | inactive | inactive | inactive |
| C=CCOC(=O)C1=C[C@@H](c2csc3ccccc23)C[C@@H](OCc2ccc(COC(=O)NCCCCCC(=O)NO)cc2)O1 | inactive | inactive | inactive |
| CC(CCC(=O)O)C1CCC2C3CCC4CC(O)CCC4(C)C3CC(O)C12C (stereo not drawn) | inactive | inactive | inactive |
| C[C@H](CO)N1C[C@H](C)[C@H](CN(C)C(=O)Nc2ccc(C(F)(F)F)cc2)Oc2ccc(NC(=O)Nc3ccc(F)cc3)cc2CC1=O | inactive | inactive | inactive |
| Cc1noc(C)c1NC(=O)Nc1ccc2c(c1)C(=O)N([C@@H](C)CO)C[C@@H](C)[C@H](CN(C)C(=O)Nc1ccc(C(F)(F)F)cc1)O2 | inactive | inactive | inactive |
| CC(C)n1c(-c2ccccc2)cs/c1=N\c1ccccc1 | inactive | inactive | inactive |
| C[C@@H]1CN([C@H](C)CO)C(=O)c2cc(NC(=O)CCC(F)(F)F)ccc2O[C@@H](C)CCCCO[C@@H]1CN(C)C(=O)NC1CCCCC1 | inactive | inactive | inactive |
| C[C@@H]1CN([C@H](C)CO)C(=O)Cc2cc(NC(=O)CCCN(C)C)ccc2O[C@H]1CN(C)S(=O)(=O)c1ccccc1 | inactive | inactive | inactive |
| C[C@@H]1CCCCO[C@H](CN(C)S(=O)(=O)c2cn(C)cn2)[C@H](C)CN([C@@H](C)CO)C(=O)c2cc(NS(=O)(=O)c3cn(C)cn3)ccc2O1 | inactive | inactive | inactive |
| C[C@@H]1CCCCO[C@@H](CN(C)C(=O)C2CCCCC2)[C@H](C)CN([C@@H](C)CO)C(=O)c2cc(NC(=O)Nc3ccccc3)ccc2O1 | inactive | inactive | inactive |
| CO[C@@H]1CCN(C(=O)CS(C)(=O)=O)[C@@H]2CCO[C@H]21 | inactive | inactive | inactive |

| Compound | cytotoxicity call [1] | cytotoxicity call [2] | growth inhibition call [3] |
| --- | --- | --- | --- |
| C[C@@H]1CCCCO[C@H](CN(C)C(=O)C2CCCCC2)[C@@H](C)CN([C@H](C)CO)C(=O)c2cc(NC(=O)C3CCCCC3)ccc2O1 | inactive | inactive | inactive |
| C[C@@H]1CCCCO[C@H](CN(C)C(=O)Nc2ccccc2)[C@H](C)CN([C@H](C)CO)C(=O)c2cc(NC(=O)NC3CCCCC3)ccc2O1 | inactive | inactive | inactive |
| CO[C@H]1CN(C)C(=O)c2cc(NS(=O)(=O)c3cn(C)cn3)ccc2OC[C@@H](C)N(Cc2cccc(F)c2)C[C@H]1C | inactive | inactive | inactive |
| O=[N+]([O-])c1cccc2c1nnn2[C@H](CO)OCCO | inactive | inactive | inactive |
| C[C@@H]1CCCCO[C@H](CN(C)Cc2ccc(C(=O)O)cc2)[C@H](C)CN([C@@H](C)CO)C(=O)c2cc(NC(=O)CCC(F)(F)F)ccc2O1 | inactive | inactive | inactive |
| COc1ccc(NC(=O)N(C)C[C@@H]2OCCCC[C@@H](C)Oc3ccc(NS(=O)(=O)c4ccc(OC)cc4)cc3C(=O)N([C@@H](C)CO)C[C@H]2C)cc1 | inactive | inactive | inactive |
| C[C@H](CO)N1C[C@H](C)[C@H](CN(C)S(=O)(=O)c2cccs2)Oc2ccc(NS(C)(=O)=O)cc2C1=O | inactive | inactive | inactive |
| O=C(C[C@@H]1C=C[C@H](NC(=O)c2cnccn2)[C@@H](CO)O1)NCc1ccccc1F | inactive | inactive | inactive |
| Nc1nc(=S)c2ncn([C@@H]3O[C@H](CO)[C@@H](O)[C@H]3O)c2[nH]1 | inactive | active | inactive |
| C[C@@H]1CN([C@@H](C)CO)C(=O)c2c(c3ccccc3n2C)-c2ccccc2CO[C@H]1CN(C)Cc1ccc(F)cc1 | inactive | inactive | inactive |
| C[C@H](CO)N1C[C@H](C)[C@H](CN(C)Cc2ccncc2)OCCCC[C@H](C)Oc2ccc(NC(=O)CCC(F)(F)F)cc2C1=O | inactive | inactive | inactive |
| C[C@H]1CN([C@@H](C)CO)S(=O)(=O)c2ccc(C#CCN(C)C)cc2O[C@H]1CN(C)C | inactive | inactive | inactive |
| CCCN(C)C[C@@H]1OCCCC[C@@H](C)Oc2ccc(NC(=O)CCCCCC(=O)Nc3ccccc3N)cc2C(=O)N([C@H](C)CO)C[C@@H]1C | inactive | inactive | inactive |
| NC(=O)CCCCC(N)=O | inactive | inactive | inactive |
| COc1ccc(S(=O)(=O)N(C)C[C@H]2Oc3ccc(NC(=O)Cn4cnnn4)cc3C(=O)N([C@@H](C)CO)C[C@@H]2C)cc1 | inactive | inactive | inactive |
| C[C@@H]1CN([C@@H](C)CO)C(=O)c2cc(NC(=O)Nc3ccc4c(c3)OCO4)ccc2O[C@@H](C)CCCCO[C@H]1CN(C)S(=O)(=O)c1ccccc1 | inactive | inactive | inactive |
| Cc1ccc(S(=O)(=O)N(C)C[C@H]2OCCCC[C@H](C)Oc3ccc(NC(=O)C4CCCCC4)cc3C(=O)N([C@@H](C)CO)C[C@H]2C)cc1 | inactive | inactive | inactive |
| O=C(N[C@H]1C=C[C@H](CC(=O)N2CCOCC2)O[C@@H]1CO)c1ccc2c(c1)OCO2 | inactive | inactive | inactive |
